Assay results reported in publication PMC6919601, “Identification of Plasmodium dipeptidyl aminopeptidase allosteric inhibitors by high throughput screening” (PLoS ONE, 2019).
Hit rate of the full screen: of about 110,000 compounds, about 230 (0.21%) showed an effect of 50% or more. The list shows a part of the results.

The compounds below were run against DPAP1 (Plasmodium falciparum, UniProt Q8IIJ9) (assay: primary screen, percent inhibition; read by cleavage of a fluorogenic dipeptide substrate; higher = more effect of the substance).
Chain of DPAP1 (Q8IIJ9 whole entry, looked up): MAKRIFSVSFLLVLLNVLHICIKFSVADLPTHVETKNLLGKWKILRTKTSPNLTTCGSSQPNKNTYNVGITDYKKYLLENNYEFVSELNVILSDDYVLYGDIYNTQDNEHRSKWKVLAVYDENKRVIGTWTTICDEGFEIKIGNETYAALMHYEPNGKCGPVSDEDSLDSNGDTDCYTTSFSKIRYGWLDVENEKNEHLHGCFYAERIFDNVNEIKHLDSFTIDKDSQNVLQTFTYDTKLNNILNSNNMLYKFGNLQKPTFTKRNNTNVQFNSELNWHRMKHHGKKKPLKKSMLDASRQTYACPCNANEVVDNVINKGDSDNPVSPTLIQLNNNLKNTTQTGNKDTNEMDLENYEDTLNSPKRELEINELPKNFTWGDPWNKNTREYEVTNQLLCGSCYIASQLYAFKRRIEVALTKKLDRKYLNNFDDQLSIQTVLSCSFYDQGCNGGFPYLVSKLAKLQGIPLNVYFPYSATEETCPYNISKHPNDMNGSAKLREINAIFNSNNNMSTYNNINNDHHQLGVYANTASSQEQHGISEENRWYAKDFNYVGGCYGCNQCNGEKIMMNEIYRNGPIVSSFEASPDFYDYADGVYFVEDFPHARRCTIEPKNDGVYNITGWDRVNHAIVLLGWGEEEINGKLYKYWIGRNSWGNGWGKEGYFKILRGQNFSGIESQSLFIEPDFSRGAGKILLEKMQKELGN
Design: species or system P. falciparum D10 trophozoite lysates; single well
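Also: 30 min substrate incubation versus DMSO and 10 µM JCP410 controls.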

| Structure (SMILES) | % Inhibition @ 10 uM |
| --- | --- |
| CNC(=O)/C(=C/c1ccco1)NC(=O)c1ccccc1 | 0.317% |
| CC(NC(=O)c1ccc(CS(=O)(=O)Cc2ccccc2Cl)o1)c1ccccc1 (stereo not drawn) | -0.267% |
| O=C(C1COc2cc(S(=O)(=O)NCc3ccccc3Cl)ccc2O1)N1CCCCCC1 (stereo not drawn) | -4.75% |
| CC(C)(C)c1ccc(C(=O)n2nc(-c3cccnc3)nc2NCc2ccc(F)cc2)cc1 | -2.92% |
| COc1ccc(N(C(C)C(=O)Nc2ccc(OC)c(OC)c2)S(C)(=O)=O)cc1 (stereo not drawn) | 0.389% |
| O=C(CN1C(=O)c2cccc3cccc1c23)Nc1ccc(F)c(F)c1 | -8.43% |
| CC(=O)N[C@H]1[C@H](Oc2ccc(C)cc2)O[C@@H]2COC(C)(C)O[C@H]2[C@@H]1O | -1.64% |
| CCOc1cc(C2C(C#N)=C(N)Oc3cc(O)ccc32)ccc1OCc1ccc(F)cc1 (stereo not drawn) | 3.87% |
| Cc1ccc2oc(-c3cc(NC(=O)c4ccncc4)ccc3C)nc2c1 | 0.661% |
| Cc1ccc(NC(=O)CC2Sc3ccccc3NC2=O)cc1 (stereo not drawn) | -2.17% |
| COC(=O)Nc1ccc(S(=O)(=O)NCC(=O)O)cc1 | -0.0369% |
| COc1ccc(OC)c(CCNC(=O)c2cnn(C)c2C2CCN(C(=O)OC(C)(C)C)CC2)c1 | -4.03% |
| Cc1cc(C)n(CC(=O)c2ccc(F)c(F)c2)n1 | 1.66% |
| COc1ccc([N+](=O)[O-])cc1NC1C2CC3CC(C2)CC1C3 (stereo not drawn) | 3.82% |
| O=C(c1ccc(Cl)c(Cl)c1)N1CCCC1 | -0.687% |
| COc1cc(NS(=O)(=O)c2ccc(NC(=O)c3ccccc3)cc2)nc(OC)n1 | 11.8% |
| COCCNC(=O)c1nn2c(c1Cl)NC(c1cccs1)CC2C(F)(F)F (stereo not drawn) | -6.69% |
| CC1=C(C#N)C(C(F)(F)F)(C(F)(F)F)NC(c2cccc(Cl)c2)=N1 | 3.19% |
| C=CCNC(=S)Nc1sc2c(c1C(=O)OCC)CC(C(C)C)OC2 (stereo not drawn) | -3.33% |
| Cc1ccc(S(=O)(=O)c2nc(S(=O)(=O)c3ccc(C)cc3)c(NCC3CCCO3)s2)cc1 (stereo not drawn) | 0.627% |
| C(=C\c1ccccc1)/CN1CCN(Cc2ccco2)CC1 | 0.847% |
| CCOc1ccccc1NC(=O)CN1C(=O)c2ccccc2C1=O | -5% |
| CC1=CC(C)(C)N(C(=O)c2ccc(Br)cc2)c2ccccc21 | -3.77% |
| O=C(c1ccccc1)c1ccc2nc(NCC3CCCO3)c3nncn3c2c1 (stereo not drawn) | 2.42% |
| NC(=O)c1ccc(NC(=O)CN(Cc2ccc(Cl)cc2)S(=O)(=O)c2ccccc2)cc1 | 20% |
| CCOCCCNC(=O)c1cc2c(=O)oc3ccc(C)cc3c2s1 | -2.75% |

| Structure (SMILES) | % Inhibition @ 10 uM |
| --- | --- |
| COc1ccc(N(CC(=O)N2CCc3ccccc3C2)S(C)(=O)=O)cc1OC | -2.32% |
| CCCCC12CN3CC(C)(CN(C1)C3c1ccc(OC(C)C)cc1)C2=O (stereo not drawn) | -1.71% |
| Cc1ccc(-n2c(=O)[nH]c3ncccc3c2=O)cc1 | -3.45% |
| COC(=O)c1ccc2c(c1)C(=O)N(c1ccsc1Cl)C2=O | -6.17% |
| O=C1CCCC2=C1C(c1ccccc1Cl)C1=C(CCCC1=O)O2 | 2.69% |
| Cc1c(CNCC(C)c2ccccc2)c(C(=O)O)c(C)n1Cc1cccc(Cl)c1 (stereo not drawn) | 7.46% |
| CCCN1C(=O)c2ccccc2NC1c1ccc(O)c(OCC)c1 (stereo not drawn) | 8.6% |
| Cc1nonc1OCC(C)(COc1nonc1C)NS(=O)(=O)c1ccc(Cl)cc1 | 4.34% |
| COc1ccc(CNC(=O)c2cc3ccc4cccnc4c3[nH]2)cc1 | 2.6% |
| NC(=O)/C(=C/c1ccc2c(c1)OCO2)NC(=O)c1cccc(Br)c1 | 0.214% |
| O=C1N=C(N2CCc3ccccc3C2)S/C1=C\c1ccccc1 | 1.52% |
| Cc1ccc2cc3cc(C(=O)N4CCC5(CC4)OCCO5)oc3nc2c1 | -3.35% |
| Cc1nn(CC(=O)NCCC2=CCCCC2)c(=O)c2c1sc1ccccc12 | -4.26% |
| O=C(CNc1ccc(Cl)cc1)c1ccc(Cl)cc1 | -1.69% |
| CCCCn1c(=O)c(C#N)cc2c(=O)n3ccccc3nc21 | 2.73% |
| Cc1cc(OCC(=O)N2CCOCC2)ccc1Br | -2.36% |
| C=CCc1c(C)nc(-c2ccccc2)nc1Nc1ccc(C)cc1 | -2.44% |
| c1ccc2c(c1)CCN(Cc1ccncc1)C2 | -0.446% |
| O=C(c1cccs1)c1coc2ccc(O)c(CN3CCOCC3)c12 | 3.6% |
| COc1cccc2c1OC(CC(C)C)N1N=C(c3cc(C)ccc3O)CC21 (stereo not drawn) | -5.36% |
| Cc1c(NC(=O)C(c2ccccc2)c2ccccc2)c(=O)n(-c2ccccc2)n1C | 4.54% |
| COc1ccc(CN2CCCCCC2)cc1 | -0.192% |
| CCCc1ccc(Oc2cc(-c3ccccc3)nc(-c3ccccc3)n2)cc1 | -11.3% |
| O=C(CN1N=C(c2ccccc2)CCC1=O)NCc1ccccc1 | -4.83% |
| Oc1ccc(CN2CCN(c3ccccc3)CC2)cc1 | -1.92% |
